In patent US4868203A, “Bacterial substance and pharmaceutical composition thereof” (Kabushikikaisha Ueno Seiyaku Oyo Kenkyujo, priority 1986, dated 1989) one finds MIC data, which are given here for one molecule.

Molecules are shown by their SMILES. Converted amounts (≈) assume the structure as drawn.

This test deals with Xandomonas campestris PV citri U-2. The test is classed as cell-based. The following applies: Xandomonas campestris PV citri U-2 (citrus canker).

The molecule `CC=CC=CC=CC(=O)NC(CC(=O)NC(C(=O)C1C(=O)NC(=O)C1C)C(C)C)c1ccccc1` (stereo not shown) [UFC-N11] yielded an MIC of 0.2 µg/mL (≈ 0.417 µM).

Broadly, the MIC is the lowest concentration that inhibits growth of the organism.
